Results: the supplement of paper PMC4604168 (melanoma cell lines)
The other results are listed elsewhere or left out. Single values are uncertain, as repeats are few or missing.

Legend:
Assay in all cases: cell count relative to DMSO control; melanoma cells; higher = more viable cells
Details in all cases: library dose: standard library concentration; 72 h
G361 = test system: G361
IPC-298 = test system: IPC-298
IST-MEL1 = test system: IST-MEL1
LB2518-MEL = test system: LB2518-MEL
LOXIMVI = test system: LOXIMVI
MEL-HO = test system: MEL-HO
MZ2-MEL = test system: MZ2-MEL
MeWo = test system: MeWo
RPMI7951 = test system: RPMI7951
RVH-421 = test system: RVH-421
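Also: cells treated in 1,536-well plates, then fixed and DAPI-stained, with nuclei counted from automated high-throughput microscope images.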

SMILES | cell count (G361) [%] | cell count (IPC-298) [%] | cell count (IST-MEL1) [%] | cell count (LB2518-MEL) [%] | cell count (LOXIMVI) [%] | cell count (MEL-HO) [%] | cell count (MZ2-MEL) [%] | cell count (MeWo) [%] | cell count (RPMI7951) [%] | cell count (RVH-421) [%]
O=c1[nH]nc(Sc2ncc([N+](=O)[O-])s2)n1-c1ccc2c(c1)OCCO2 + O=c1cc(-c2cccc3c2Sc2ccccc2S3)oc(N2CCOCC2)c1 [KU55933] (first compound 1 µM, partner dose 5 µM) | 76.7 | 90.5 | 91.3 | 96.1 | 83.5 | 79.3 | 119 | 99 | 62.5 | 106
O=c1[nH]nc(Sc2ncc([N+](=O)[O-])s2)n1-c1ccc2c(c1)OCCO2 + Cc1cn(-c2cc(NC(=O)c3ccc(C)c(Nc4nccc(-c5cccnc5)n4)c3)cc(C(F)(F)F)c2)cn1 [nilotinib] (first compound 1 µM, partner dose 1 µM) | 94.3 | 92.5 | 76.6 | 79.7 | 136 | 104 | 107 | 94.4 | 90.5 | 130
C[C@@H]1CCN(C(=O)CC#N)C[C@@H]1N(C)c1ncnc2[nH]ccc12 + O=C(O)c1ccc(-c2c[nH]c3ncc(-c4ccccc4)cc23)cc1C1CCCC1 [GSK650394] (first compound 5 µM, partner dose 0.8 µM) | 63.1 | 101 | 24.4 | 99.5 | 75.7 | 69.6 | 94.3 | 95.3 | 111 | 81.5
O=C(O)c1ccc(-c2c[nH]c3ncc(-c4ccccc4)cc23)cc1C1CCCC1 + CCCCCCCCCCCC1=C(O)C(=O)C=C(O)C1=O [Embelin] (first compound 0.8 µM, partner dose 6 µM) | 68.5 | 83.6 | 3.91 | 92.4 | 106 | 70.9 | 80.6 | 83 | 76.5 | 56.5
O=C(Nc1cccc(Cl)c1)Nc1ncc(CCNc2ncnc3ccsc23)s1 + O=C1NC(=O)/C(=C/c2ccc(-c3ccc(F)cc3O)o2)S1 [AS252424] (first compound 0.004 µM, partner dose 5 µM) | 58.8 | 67.4 | 54.1 | 86.9 | 73.6 | 52.8 | 80.3 | 66.7 | 38.6 | 84.2
O=C(O)c1ccc(-c2c[nH]c3ncc(-c4ccccc4)cc23)cc1C1CCCC1 + COC(=O)c1sccc1S(=O)(=O)Nc1ccc(Nc2ccccc2)cc1OC [GSK0660] (first compound 0.8 µM, partner dose 5 µM) | 65.4 | 78 | 76.9 | 114 | 108 | 73.6 | 73.1 | 95.3 | 91.5 | 67.1
O=c1[nH]nc(Sc2ncc([N+](=O)[O-])s2)n1-c1ccc2c(c1)OCCO2 + CCN(CC)CCCCNc1ncc2cc(-c3cc(OC)cc(OC)c3)c(NC(=O)NC(C)(C)C)nc2n1 [PD173074] (first compound 1 µM, partner dose 0.5 µM) | 117 | 118 | 101 | 118 | 119 | 118 | 102 | 93.8 | 116 | 89.8
CC1(C)NC(=O)N(c2ccc([N+](=O)[O-])c(C(F)(F)F)c2)C1=O [nilutamide] + Oc1nc(-c2ccc(C(F)(F)F)cc2)nc2c1CSCC2 [XAV939] (first compound 5 µM, partner dose 10 µM) | 86.1 | 92.7 | 112 | 74.6 | 69.8 | 95.6 | 93.2 | 85.7 | 67.2 | 98.4
O=C(O)c1ccc(-c2c[nH]c3ncc(-c4ccccc4)cc23)cc1C1CCCC1 + COc1cc(N2CCC(N3CCN(C)CC3)CC2)ccc1Nc1ncc(Cl)c(Nc2ccccc2S(=O)(=O)C(C)C)n1 [NVP-TAE684] (first compound 0.8 µM, partner dose 0.4 µM) | 53.9 | 93.9 | 77.8 | 82.5 | 82.9 | 65.1 | 71.6 | 62.2 | 70 | 73.9
COc1cc(Nc2ncc(F)c(Nc3ccc4c(n3)NC(=O)C(C)(C)O4)n2)cc(OC)c1OC [Tamatinib] + O=C(O)C(=O)Nc1sc2c(c1C(=O)O)CCNC2 [TCS401] (first compound 2 µM, partner dose 8.33333 µM) | 72.8 | 92 | 81.5 | 127 | 46.2 | 87.1 | 81.4 | 78.3 | 72.7 | 67
COc1cc(Nc2ncc(F)c(Nc3ccc4c(n3)NC(=O)C(C)(C)O4)n2)cc(OC)c1OC [Tamatinib] + COc1ccc(COc2ccc(Cc3cnc(N)nc3N)cc2OC)cc1 [GW2580] (first compound 2 µM, partner dose 5 µM) | 72.9 | 80.9 | 91.2 | 111 | 54.4 | 75.1 | 69.9 | 66 | 56.8 | 74.5
O=C(O)c1ccc(-c2c[nH]c3ncc(-c4ccccc4)cc23)cc1C1CCCC1 + COc1ccc2c(c1)CCC1C2CCC2(C)C(NCCCCCCN3C(=O)C=CC3=O)CCC12 [U73122] (first compound 0.8 µM, partner dose 2 µM) | 50 | 87.8 | 76.6 | 79.4 | 75.3 | 69.8 | 73 | 74.3 | 25.1 | 90
CC1(C)NC(=O)N(c2ccc([N+](=O)[O-])c(C(F)(F)F)c2)C1=O [nilutamide] + Cn1cc(/C=C2\C(=O)Nc3cccnc32)c2ccccc21 [GW441756] (first compound 5 µM, partner dose 2 µM) | 97.2 | 103 | 112 | 84.7 | 126 | 101 | 92.3 | 114 | 104 | 121
COc1cc(Nc2ncc(F)c(Nc3ccc4c(n3)NC(=O)C(C)(C)O4)n2)cc(OC)c1OC [Tamatinib] + COc1cc2c(Oc3ccc4[nH]c(C)cc4c3F)ncnc2cc1OCCCN1CCCC1 [cediranib] (first compound 2 µM, partner dose 2 µM) | 70.8 | 85.8 | 113 | 76.6 | 29.1 | 62.1 | 76.4 | 73.4 | 29.9 | 46.9
C[C@@H]1CCN(C(=O)CC#N)C[C@@H]1N(C)c1ncnc2[nH]ccc12 + N#Cc1c(O)c2c(-c3ccc(-c4ccccc4O)cc3)csc2[nH]c1=O [A769662] (first compound 5 µM, partner dose 10 µM) | 109 | 99.7 | 92.6 | 106 | 222 | 112 | 107 | 82.3 | 146 | 78.1
COc1cc(Nc2ncc(F)c(Nc3ccc4c(n3)NC(=O)C(C)(C)O4)n2)cc(OC)c1OC [Tamatinib] + c1cc(-c2cnn3cc(-c4ccc(OCCN5CCCCC5)cc4)cnc23)ccn1 [Dorsomorphin] (first compound 2 µM, partner dose 2 µM) | 37.7 | 69 | 74.8 | 88.8 | 38.6 | 62.4 | 53.8 | 68.6 | 31.3 | 67.6
O=C(Nc1cccc(Cl)c1)Nc1ncc(CCNc2ncnc3ccsc23)s1 + c1cc(-c2cnn3cc(-c4ccc(OCCN5CCCCC5)cc4)cnc23)ccn1 [Dorsomorphin] (first compound 0.004 µM, partner dose 2 µM) | 64.5 | 66.4 | 80.4 | 56.6 | 71.8 | 69.5 | 57.4 | 42.6 | 55 | 82.3
CC1(C)NC(=O)N(c2ccc([N+](=O)[O-])c(C(F)(F)F)c2)C1=O [nilutamide] + O=C(O)c1ccc(-c2c[nH]c3ncc(-c4ccccc4)cc23)cc1C1CCCC1 [GSK650394] (first compound 5 µM, partner dose 0.8 µM) | 59.3 | 82.2 | 80.6 | 95.1 | 68.5 | 66 | 94.9 | 84.1 | 67.2 | 74.3
COc1cc(Nc2ncc(F)c(Nc3ccc4c(n3)NC(=O)C(C)(C)O4)n2)cc(OC)c1OC [Tamatinib] + O=C(Nc1ccccc1)c1cc([N+](=O)[O-])ccc1Cl [GW9662] (first compound 2 µM, partner dose 10 µM) | 71.8 | 76.9 | 75.3 | 55.2 | 29.3 | 63 | 46.9 | 60.8 | 42.9 | 75.6
COc1cc(Nc2ncc(F)c(Nc3ccc4c(n3)NC(=O)C(C)(C)O4)n2)cc(OC)c1OC [Tamatinib] + COc1ccc2c(c1)CCC1C2CCC2(C)C(NCCCCCCN3C(=O)C=CC3=O)CCC12 [U73122] (first compound 2 µM, partner dose 2 µM) | 67.9 | 78.5 | 91.8 | 91.4 | 48.9 | 86.5 | 77.8 | 57.7 | 28.3 | 77
O=C(O)c1ccc(-c2c[nH]c3ncc(-c4ccccc4)cc23)cc1C1CCCC1 + O=S(=O)(c1ccccc1)N(CC(F)(F)F)c1ccc(C(O)(C(F)(F)F)C(F)(F)F)cc1 [T0901317] (first compound 0.8 µM, partner dose 7 µM) | 55.5 | 66.2 | 77.2 | 90.6 | 84.2 | 74.4 | 76.1 | 76.3 | 70.2 | 68
O=c1[nH]nc(Sc2ncc([N+](=O)[O-])s2)n1-c1ccc2c(c1)OCCO2 + NC1(c2ccc(-c3nc4ccn5c(=O)[nH]nc5c4cc3-c3ccccc3)cc2)CCC1 [MK2206] (first compound 1 µM, partner dose 2 µM) | 91.1 | 85.5 | 88.4 | 73.9 | 39.1 | 70.6 | 102 | 88 | 100 | 74.7
O=C(Nc1cccc(Cl)c1)Nc1ncc(CCNc2ncnc3ccsc23)s1 + Oc1nc(-c2ccc(C(F)(F)F)cc2)nc2c1CSCC2 [XAV939] (first compound 0.004 µM, partner dose 10 µM) | 68.3 | 68.7 | 54.7 | 69.3 | 78.6 | 68.5 | 42.5 | 74.6 | 46.9 | 93
